In one experiment the test system is HSkMC. Nature of the experiment: cytotoxicity call (relative viability < 0.9). Particulars: 10 µM.
The subject of another experiment is S. aureus RN4220. Nature of the experiment: growth inhibition call (relative growth <= 0.2). Particulars: 50 µM.

Consider 29 compounds from the antibiotic and cytotoxicity screens of Wong et al. (2023).

The other results are listed elsewhere or left out.

Regarding `Cc1ccc(S(=O)(=O)Nc2ccc3c(c2)C(=O)N([C@@H](C)CO)C[C@@H](C)[C@@H](CN(C)C(=O)Nc2ccc4c(c2)OCO4)OCCCC[C@H](C)O3)cc1`, in the experiment with HSkMC, the cytotoxicity call was “inactive”. The growth inhibition call in the experiment with S. aureus RN4220 is “inactive”.
As for `C[C@H]1CN([C@@H](C)CO)C(=O)c2cc(NC(=O)CCC(F)(F)F)ccc2O[C@H]1CN(C)Cc1ccc(Cl)c(Cl)c1`, the cytotoxicity call in the experiment on HSkMC is “inactive”. Also, the growth inhibition call with S. aureus RN4220 was “inactive”.
With `COCCc1ccc(OCC(O)CNC(C)C)cc1.O=C(O)C(O)C(O)C(=O)O` (stereo not drawn), the cytotoxicity call in the experiment with HSkMC was “inactive”. Besides, the growth inhibition call in the experiment on S. aureus RN4220 is “inactive”.
In the case of `COc1ccc(S(=O)(=O)N(C)C[C@H]2Oc3cc(-c4ccccc4OC)ccc3S(=O)(=O)N([C@H](C)CO)C[C@@H]2C)cc1`, the cytotoxicity call in the experiment with HSkMC is “inactive”. Moreover, the growth inhibition call in the experiment with S. aureus RN4220 was “inactive”.
Turning to `COc1ccc(NC(=O)Nc2cccc3c2O[C@H](CN(C)Cc2ccc(Cl)c(Cl)c2)[C@@H](C)CN([C@@H](C)CO)C3=O)cc1`, the cytotoxicity call with HSkMC was “active”. Further, in the experiment on S. aureus RN4220, the growth inhibition call is “inactive”.
Regarding `O=c1cc(Cl)[nH]c(=O)[nH]1`, the cytotoxicity call in the experiment on HSkMC was “inactive”. Moreover, the growth inhibition call in the experiment on S. aureus RN4220 is “inactive”.
For the compound `COc1ccc(S(=O)(=O)Nc2ccc3c(c2)C(=O)N([C@@H](C)CO)C[C@H](C)[C@@H](CN(C)C(=O)Nc2cccc4ccccc24)OCCCC[C@@H](C)O3)cc1`, the cytotoxicity call in the experiment on HSkMC is “inactive”. Besides, the growth inhibition call in the experiment with S. aureus RN4220 was “inactive”.
Turning to `C[C@@H]1CN([C@@H](C)CO)C(=O)c2cccc(NC(=O)c3ccc(-c4nccs4)cc3)c2O[C@@H]1CN(C)S(=O)(=O)c1ccc(Cl)cc1`, in the experiment on HSkMC, the cytotoxicity call was “inactive”. Further, in the experiment with S. aureus RN4220, the growth inhibition call was “inactive”.
Regarding `Cc1noc(C)c1NC(=O)N(C)C[C@H]1Oc2ncc(C#CCC(C)C)cc2C(=O)N([C@@H](C)CO)C[C@H]1C`, in the experiment with HSkMC, the cytotoxicity call was “inactive”. In addition, in the experiment on S. aureus RN4220, the growth inhibition call is “inactive”.
Take `CC(C)[Si]1(C(C)C)O[C@@H](c2ccccc2)c2cc(C3CC3)nc(-c3ccc(Oc4ccccc4)cc3)c21`: in the experiment with HSkMC, the cytotoxicity call was “inactive”. The growth inhibition call with S. aureus RN4220 is “inactive”.
On to `COc1ccc(NC(=O)N(C)C[C@H]2Oc3ncc(C#C[C@H](C)O)cc3C(=O)N([C@@H](C)CO)C[C@H]2C)cc1`, for which the cytotoxicity call in the experiment with HSkMC is “inactive”. The growth inhibition call with S. aureus RN4220 is “inactive”.
Turning to `C[C@@H]1CN([C@H](C)CO)C(=O)c2cccc(NS(=O)(=O)c3ccc(F)cc3)c2O[C@H]1CN(C)S(=O)(=O)c1cn(C)cn1`, in the experiment on HSkMC, the cytotoxicity call is “inactive”. In the experiment on S. aureus RN4220, the growth inhibition call is “inactive”.
With `C[C@@H](O)c1nnc(N)[nH]1`, in the experiment with HSkMC, the cytotoxicity call is “inactive”. Besides, in the experiment with S. aureus RN4220, the growth inhibition call is “inactive”.
For the compound `Cc1noc(C)c1NC(=O)Nc1cccc2c1O[C@@H](CN(C)Cc1ccc(C(=O)Nc3ccccc3N)cc1)[C@@H](C)CN([C@H](C)CO)C2=O`, in the experiment with HSkMC, the cytotoxicity call is “inactive”. The growth inhibition call in the experiment on S. aureus RN4220 is “inactive”.
As for `C[C@@H]1CCCCO[C@H](CN(C)C(=O)Nc2ccccc2)[C@@H](C)CN([C@@H](C)CO)C(=O)c2cc(NC(=O)c3ccccc3)ccc2O1`, the cytotoxicity call in the experiment on HSkMC is “inactive”. Also, in the experiment on S. aureus RN4220, the growth inhibition call was “inactive”.
Consider `C[C@@H]1CCCCO[C@@H](CN(C)S(C)(=O)=O)[C@H](C)CN([C@@H](C)CO)C(=O)c2cc(N(C)C)ccc2O1`, for which the cytotoxicity call with HSkMC is “inactive”. Besides, in the experiment with S. aureus RN4220, the growth inhibition call is “inactive”.
Regarding `O=[N+]([O-])c1ccc(/C=C/CN(C/C=C/c2ccc([N+](=O)[O-])cc2)CCNS(=O)(=O)c2cccc3cnccc23)cc1`, the cytotoxicity call with HSkMC is “inactive”. In the experiment with S. aureus RN4220, the growth inhibition call is “inactive”.
As for `Cc1ccc(S(=O)(=O)N[C@@H](Cc2ccccc2)C(=O)NCCn2cc(CN3C(=O)COC[C@H]3c3ccccc3)nn2)cc1`, the cytotoxicity call in the experiment with HSkMC is “inactive”. Also, in the experiment on S. aureus RN4220, the growth inhibition call is “inactive”.
Consider `COc1ccc(NC(=O)Nc2ccc3c(c2)CC(=O)N([C@H](C)CO)C[C@H](C)[C@@H](CN(C)Cc2ccc(-c4ccccc4)cc2)O3)cc1`, for which the cytotoxicity call in the experiment on HSkMC is “active”. Moreover, in the experiment with S. aureus RN4220, the growth inhibition call is “inactive”.
Consider `Cc1ccc(S(=O)(=O)Nc2ccc3c(c2)C(=O)N([C@@H](C)CO)C[C@@H](C)[C@@H](CN(C)S(=O)(=O)c2c(C)noc2C)O3)cc1`, for which, in the experiment with HSkMC, the cytotoxicity call is “inactive”. For the same compound, the growth inhibition call with S. aureus RN4220 was “inactive”.
As for `CN1C=C(C(=O)OCCS(C)(=O)=O)C(C(=O)OCCS(C)(=O)=O)=CC(CCCO)=C[C@@H]1C1CC1`, the cytotoxicity call in the experiment on HSkMC was “inactive”. Moreover, the growth inhibition call in the experiment on S. aureus RN4220 was “inactive”.
In the case of `COc1ccc(NC(=O)Nc2cccc3c2O[C@H](CN(C)C(=O)Nc2ccc(C(F)(F)F)cc2)[C@@H](C)CN([C@@H](C)CO)C3=O)cc1`, the cytotoxicity call in the experiment with HSkMC was “inactive”. For the same compound, the growth inhibition call in the experiment with S. aureus RN4220 is “inactive”.
For `CN(C)C(=O)C[C@@H]1C=C[C@H](NC(=O)C2CCOCC2)[C@@H](CO)O1`, in the experiment with HSkMC, the cytotoxicity call is “inactive”. In addition, the growth inhibition call with S. aureus RN4220 is “inactive”.
Consider `COc1cccc(-c2ccc3c(c2)O[C@@H](CN(C)C(=O)C2CC2)[C@H](C)CN([C@@H](C)CO)S3(=O)=O)c1`, for which, in the experiment on HSkMC, the cytotoxicity call is “inactive”. Moreover, in the experiment with S. aureus RN4220, the growth inhibition call was “inactive”.
For the compound `C[C@@H]1CCCCO[C@H](CN(C)C(=O)Nc2cccc3ccccc23)[C@@H](C)CN([C@@H](C)CO)C(=O)c2cc(N(C)C)ccc2O1`, the cytotoxicity call in the experiment on HSkMC was “inactive”. In addition, the growth inhibition call in the experiment on S. aureus RN4220 is “inactive”.
Regarding `C[C@@H]1CN([C@@H](C)CO)C(=O)c2cccc(NC(=O)c3cnccn3)c2O[C@H]1CN(C)C(=O)Nc1ccc2c(c1)OCO2`, the cytotoxicity call in the experiment with HSkMC was “inactive”. Moreover, the growth inhibition call in the experiment with S. aureus RN4220 was “inactive”.
`CC(C)NC(=O)Nc1ccc2c(c1)C(=O)N([C@@H](C)CO)C[C@H](C)[C@@H](CN(C)S(=O)(=O)c1cccs1)O2`: the cytotoxicity call with HSkMC was “inactive”. For the same compound, the growth inhibition call in the experiment on S. aureus RN4220 is “inactive”.
As to `COC(=O)c1c(C(=O)OC)c2n(c(=O)c1-c1ccccc1)[C@@H]1c3ccccc3O[C@@](CO)([C@@H]1CO)N2C`, the cytotoxicity call in the experiment with HSkMC is “inactive”. In addition, the growth inhibition call with S. aureus RN4220 was “inactive”.
Consider `COc1ccc(S(=O)(=O)Nc2ccc3c(c2)C(=O)N([C@H](C)CO)C[C@@H](C)[C@H](CN(C)Cc2ccccc2)OCCCC[C@@H](C)O3)cc1`, for which, in the experiment on HSkMC (human skeletal muscle cells), the cytotoxicity call was “inactive”. In addition, the growth inhibition call in the experiment with S. aureus RN4220 was “inactive”.
